These results are taken from the supplement of paper PMC4723716.

This experiment concerns Plasmodium falciparum NF54 stage V gametocytes. The experiment in a line: viability index relative to DMSO control (fraction); higher = less gametocyte killing. The settings on record: 2.5 µM, incubation time: 72 h. The essentials: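 Compound at 2.5 µM was incubated for 72 hr at 37°C under low oxygen with P. falciparum NF54 stage V gametocytes (0.75% gametocytemia, 1.25% hematocrit, 10 µl, serum-free screening medium) in 1,536-well plates. Staining used 3 µl of 2.5 µM MitoTracker Red CMXRos plus 0.13% saponin for one to two hours, and red particles of 20–70 µm2 were counted in one imaged field per well. Each viability index is that count relative to the plate mean of solvent-only wells.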

[1] abbreviates: library set: Broad Institute Blood Stage.
Setting [2] is: library set: Broad Institute DOS.

± gives the uncertainty stated by the source. Over roughly 9,900 compounds, “viability index relative to DMSO control” has its median near 1; the lowest 2% begin near 0.85. Some of the results follow.

On to `C[C@H]1CN([C@@H](C)CO)C(=O)c2cc(/C=C/c3ccccc3)cnc2O[C@@H]1CN(C)C(=O)C1CCCCC1`, for which the viability index under setting [1] came to 0.643 ± 0.072.
Under setting [2], `N#C[C@@H]1[C@H](c2ccccc2-c2ccccc2F)[C@H](CO)N1C(=O)C1CCC1` returned a viability index of 1.07 ± 0.12.
Still for that read-out and setting: the value for `C[C@H]1CN([C@@H](C)CO)C(=O)c2cc(NS(=O)(=O)c3ccc(F)cc3)ccc2O[C@@H]1CN(C)C(=O)Nc1ccccc1` was 1.11 ± 0.014; that for `Cc1noc(C)c1NC(=O)N(C)C[C@H]1OCc2cn(nn2)CCCC(=O)N([C@@H](C)CO)C[C@@H]1C` was 1.03 ± 0.067.
The same measure, in the same setting: the value for `O=C(C[C@@H]1CC[C@H]2[C@@H](COC[C@@H](O)CN2C(=O)c2ccncc2)O1)NCc1cc(F)cc(F)c1` was 0.964 ± 0.05; that for `Cn1cnc(S(=O)(=O)N2C[C@@H](O)COC[C@@H]3O[C@H](CC(=O)NCc4cccc(F)c4)CC[C@H]32)c1` was 1.067 ± 0.0054.
Under setting [2], `O=C(CC(F)(F)F)N1C[C@H]2[C@@H](c3ccccc31)[C@H](CO)N2CC1CCOCC1` gave a viability index of 0.9885 ± 0.0063.
Same read-out and setting: the value for `CCCNC(=O)N1C[C@@H]2N[C@H](C1)[C@@H]2c1ccc(-c2ccccc2C)cc1` was 1.04 ± 0.055; that for `CCCNC(=O)C[C@@H]1CC[C@@H]2[C@@H](COc3ccc(NC(=O)CC)cc3C(=O)N2C)O1` was 1.12 ± 0.16.
Under setting [2], `CCS(=O)(=O)N1C[C@]2(CN(C2)C(=O)c2cccnc2)c2c([C@H]1CO)n(C)c1cc(OC)ccc21` showed a viability index of 0.963 ± 0.013.
The same measure, in the same setting: the value for `CO[C@@H]1CN(C)C(=O)c2ccc(NS(=O)(=O)CC(F)(F)F)cc2OC[C@@H](C)N(C(=O)NC(C)C)C[C@@H]1C` was 0.987 ± 0.0023; that for `CN(C[C@@H]1N[C@H](CO)[C@H]1c1ccccc1)C(=O)c1ccccn1` was 0.989 ± 0.043; that for `CC(C)C#Cc1ccc([C@H]2[C@@H](CO)N(C(=O)c3cccc(F)c3)[C@H]2C#N)cc1` was 1.12 ± 0.08.
Under setting [2], `CN(C)C(=O)c1cccc(-c2ccc([C@H]3[C@H]4CNC[C@@H]3N4Cc3cccnc3)cc2)c1` returned a viability index of 1.06 ± 0.023.
In turn, `C[C@H](CO)N1C[C@H](C)[C@H](CN(C)C(=O)Nc2cccc(F)c2)Oc2cc(C#CC3(O)CCCC3)ccc2S1(=O)=O` registered a viability index under setting [2] of 1.05 ± 0.092.
Same read-out and setting: the value for `CCCNC(=O)N1C[C@@H](C)[C@@H](OC)CN(C)C(=O)c2ccc(NC(=O)CC)cc2OC[C@@H]1C` was 1.1 ± 0.02.
As for `CO[C@H](CN(C)Cc1ccc(-c2ccccn2)cc1)[C@H](C)CN(C(=O)Nc1ccc(F)cc1)[C@H](C)CO`, the viability index under setting [2] worked out at 1.03 ± 0.085.
Under setting [2], `O=C(Nc1ccc(F)cc1)N1C[C@H]2[C@@H](c3ccccc31)[C@H](CO)N2C(=O)c1ccncc1` displayed a viability index of 1.031 ± 0.0079.
The same measure, in the same setting: the value for `COc1cccc(-c2ccc([C@H]3[C@H]4CNC[C@@H]3N4CC3CCCCC3)cc2)c1` was 0.963 ± 0.029.
Still for that read-out and setting: the value for `Cc1noc(C)c1NC(=O)Nc1cccc2c1O[C@H](CN(C)Cc1ccc(C(=O)Nc3ccccc3N)cc1)[C@H](C)CN([C@@H](C)CO)C2=O` was 0.951 ± 0.066; that for `CN(C)c1ccc2c(c1)[C@H]1C[C@H](CC(=O)NCc3ccccn3)O[C@H](CO)[C@H]1O2` was 1.01 ± 0.09.
Compound `O=C(O)C[C@@H]1C[C@@H]2c3cc(NC(=O)Cc4ccncc4)ccc3O[C@@H]2[C@H](CO)O1` registered a viability index under setting [2] of 1.06 ± 0.0013.
Same read-out and setting: the value for `CO[C@@H](CN(C)CC1CCOCC1)[C@H](C)CN(C(=O)Nc1ccc(F)cc1)[C@H](C)CO` was 0.991 ± 0.11; that for `C[C@H](CO)N1C[C@H](C)[C@@H](CN(C)S(=O)(=O)c2cccs2)Oc2ccc(NC(=O)Nc3cccc4ccccc34)cc2C1=O` was 0.962 ± 0.041.
Same read-out and setting: the value for `CNC[C@@H]1Oc2ccc(NC(=O)NC3CCCCC3)cc2CC(=O)N([C@@H](C)CO)C[C@H]1C` was 0.979 ± 0.044.
The same measure, in the same setting: the value for `CCCC(=O)N1CC[C@@]2(CC1)CN([C@H](CO)c1[nH]c3cc(OC)ccc3c21)C(=O)Cc1ccccn1` was 0.968 ± 0.048; that for `C[C@@H]1CN([C@H](C)CO)C(=O)c2cccc(NC(=O)C3CCOCC3)c2O[C@@H]1CN(C)C(=O)Nc1cccc2ccccc12` was 1.01 ± 0.18; that for `O=C(NCC[C@H]1CC[C@H](NS(=O)(=O)Cc2ccccc2)[C@@H](CO)O1)C1CCCCC1` was 1 ± 0.026.
For the compound `CC(C)CC#Cc1ccc([C@@H]2[C@@H](CO)N3C(=O)CN(S(=O)(=O)c4cccc(F)c4)C[C@@H]23)cc1`, the viability index under setting [2] stood at 1 ± 0.013.
Same read-out and setting: the value for `O=C(CC1CC1)N1CC2(C1)[C@H](c1ccccc1)[C@@H](CO)N2C(=O)c1ccccn1` was 1.11 ± 0.017.
Still for that read-out and setting: the value for `CC(C)c1cn(CC[C@H]2CC[C@@H](NS(=O)(=O)c3ccc(F)cc3)[C@@H](CO)O2)nn1` was 1.09 ± 0.092.
The same measure, in the same setting: the value for `C[C@@H]1CCCCO[C@@H](CN(C)Cc2ccncc2)[C@@H](C)CN([C@@H](C)CO)C(=O)c2cc(NS(=O)(=O)c3ccc(Cl)cc3)ccc2O1` was 1.09 ± 0.044.
Under setting [2], `COCCNC(=O)C[C@@H]1CC[C@@H]2[C@H](COC[C@@H](O)CN2Cc2ccc(Cl)c(Cl)c2)O1` had a viability index of 1.15 ± 0.12.
On the same count and under the same terms, the value for `Cc1cccc(S(=O)(=O)N2[C@@H]3c4cccc(=O)n4C[C@H]2[C@H](CO)[C@H]3C(=O)N(C)C)c1` was 1.074 ± 0.0077.
Take `CC(C)NC(=O)N1[C@H](C#N)[C@H](c2ccc(C#CC3CCCCC3)cc2)[C@@H]1CO`: under setting [1], the viability index is 0.822 ± 0.041.
